As a reminder, the % Inhibition is the drop in the measured response relative to a control, in per cent.

Out of some 150,000 compounds screened, about 540 (0.36%) showed an effect of 50% or more. This is one part of the list.

This assay relates to Plasmodium falciparum. The assay is described as follows: Primary screen in NF54 nanoGlo assay, in single point, at 2uM, 72h; a lower Z score goes with more inhibition. The conditions noted are these: timepoint 72 hour. Format: functional, Erythrocyte.
Regarding `Cc1cnc(C2CCC2)n1C1CCN(C(=O)CCc2ccccc2)CC1`, the “% Inhibition” value was -14% and the Z score was determined as 1.78.
For `CCN(Cc1ccccn1)Cc1ccc(Br)o1`, the “% Inhibition” value is reported as -11% and the Z score came to 1.41.
The like results for `Cc1nc(C)c(C(=O)N(CCS(C)(=O)=O)C(C)(C)C)s1` were, in that order, -6% and 0.7.
For the compound `COC(=O)Nc1cccc(NCc2ncc(C(C)(C)C)o2)c1`, the “% Inhibition” value came to 7% and the Z score is listed as -0.67.
For the compound `Cc1ccccc1N1CCN(C(=O)C[C@H](c2ccc(F)cc2)c2cn(Cc3ccccc3)c3ccccc23)CC1`, the “% Inhibition” value worked out at 5% and the Z score was -0.58.
Take `Cc1nc(C(=O)N[C@H]2CN(C3CCOCC3)C[C@@H]2C(C)C)cs1`: the “% Inhibition” value was -9% and the Z score amounted to 1.73.
Turning to `O=C(c1ccc(Br)o1)N1CCCS1(=O)=O`, the “% Inhibition” value is recorded as 14% and the Z score is -2.59.
For the compound `COc1ccc(CCC(=O)N2CC(n3ccnc3C)C2)cc1`, the “% Inhibition” value was -1% and the Z score was determined as 0.08.
Consider `O=C(NCc1nc2ccccc2s1)c1ccc(=O)[nH]n1`, for which the “% Inhibition” value is recorded as -12% and the Z score was determined as 2.01.
As to `Cc1n[nH]c(C)c1S(=O)(=O)Nc1ccccc1C(=O)NC1CC1`, the “% Inhibition” value was determined as 9% and the Z score is reported as -1.05.
For the compound `CC(C)Oc1ccc2c(c1)[C@H](NS(=O)(=O)CC#N)CCC2`, the “% Inhibition” value is -3% and the Z score was 0.24.
Consider `O=S(=O)(c1cccc(Cl)c1)N1CCc2nc(N3CCCCC3)nc(Oc3ccccc3)c2C1`, for which the “% Inhibition” value came to 53% and the Z score is listed as -13.31.
As to `Cc1ccc(CN2CCC(CNC(=O)C3CCCN(c4ncnc5c4nc4n5CCCCC4)C3)C2)cc1` (stereo unspecified), the “% Inhibition” value is on record as -1% and the Z score turned out to be 0.21.
Take `OC[C@H]1CCCN(CCNCc2ccccc2OCCCCN2CCOCC2)C1`: the “% Inhibition” value was -2% and the Z score is 0.22.
As for `Cc1cc(Cn2ccc(-c3cccc(-c4cccs4)c3)n2)no1`, the “% Inhibition” value is on record as -3% and the Z score is reported as 0.25.
In the case of `CC1CC(N2CCCC(Cn3cncn3)C2)C(=O)O1` (stereo unspecified), the “% Inhibition” value is reported as -7% and the Z score turned out to be 0.94.
The like results for `c1cc2nonc2cc1CN1CCC[C@H](Nc2ccc3c(c2)OCCO3)C1` were, in that order, 8% and -1.41.
Turning to `CC(C)(C)c1nccc(NCc2cc(C(F)F)on2)n1`, the “% Inhibition” value was -3% and the Z score is 0.67.
With `CCc1cccc(C)c1N1C[C@@H](c2ncc(-c3cccnc3)[nH]2)CC1=O`, the “% Inhibition” value is on record as -14% and the Z score was 1.9.
`Cc1nc(N[C@H]2CCS(=O)(=O)C2)c(Cl)cc1C#N`: the “% Inhibition” value is given as 1% and the Z score is recorded as -0.12.
Regarding `CNC(=O)C(C)(C)CN[C@@H](C)c1cc(F)cc(F)c1`, the “% Inhibition” value is reported as -3% and the Z score turned out to be 0.38.
Turning to `CN1CC2(CCN(C(=O)CN3CCCC3)CC2)C[C@@H](c2ccccc2)C1=O`, the “% Inhibition” value is 0% and the Z score turned out to be 0.04.
For `Oc1ccc(Br)cc1-c1nc(C(F)(F)F)no1`, the “% Inhibition” value stood at 2% and the Z score was -0.15.
Take `COc1cc(CN(C)Cc2cc[nH]n2)ccc1OC[C@@H](O)CN1CCCCCC1`: the “% Inhibition” value was -4% and the Z score was 0.85.
For the compound `CC(C)C(=O)N1C[C@@H]2C[C@@H](O)CN2C2(C1)CN(C1CCC(F)(F)CC1)C2`, the “% Inhibition” value stood at 1% and the Z score is given as -0.21.
As to `CC(=O)N1C[C@@H]2OCC(=O)N(Cc3ccc(F)cc3)[C@@H]2C1`, the “% Inhibition” value was determined as 19% and the Z score is reported as -2.22.
For `CCn1nc(-c2ccc(OC)c(S(=O)(=O)Nc3ccc(C)c(C)c3)c2)c2c(c1=O)CCCC2`, in that order: -6% and 0.93.
Consider `CNC(=O)[C@H](NC(=O)c1cc(-c2ccc(C)s2)nc2onc(C)c12)c1ccccc1`, for which the “% Inhibition” value is -2% and the Z score came to 0.3.
Take `Cc1ccc(O)c(NC(=O)c2cccn3c(Cc4ccccc4)nnc23)c1`: the “% Inhibition” value is -5% and the Z score worked out at 0.76.
Consider `COc1cc(C(=O)N[C@H]2CCN(c3c(F)cccc3F)C2)ncn1`, for which the “% Inhibition” value is on record as -2% and the Z score is given as 0.24.
`CCCN1CCN(C(=O)Nc2ccc3c(c2)CCC3)CC1`: the “% Inhibition” value is -2% and the Z score worked out at 0.45.
For `CC(C)Oc1cc(NC(Cc2ccccn2)[C@H]2C[C@@H](O)C2)nc(N)n1` (stereo partly specified), in that order: 3% and -0.3.
With `O=S(=O)(Cc1cccc(F)c1)N1CC(c2nc(-c3cnccn3)no2)C1`, the “% Inhibition” value was -4% and the Z score was determined as 0.76.
For `O=C(NCCc1ccccc1)N1CC[C@H](Oc2cnc3ccccc3n2)C1`, in that order: -1% and 0.19.
For the compound `CC[C@@]1(C2CCN(Cc3ccc(C)s3)CC2)NC(=O)N(CCc2ccc(OC)cc2)C1=O`, the “% Inhibition” value is on record as 2% and the Z score was -0.22.
For `CC(NCC(O)COc1ccc2c(c1)OCO2)c1ccccc1` (stereo unspecified), in that order: -9% and 1.69.
Consider `O=C(NC1CCCC1)N1CCC[C@@H]1CN1CCCC1`, for which the “% Inhibition” value turned out to be 1% and the Z score is -0.16.
For `Cc1cc(NC(=O)CCCc2ccccn2)sn1`, the “% Inhibition” value is reported as -3% and the Z score is 0.45.
`O=C(CC1CC1)NCCn1c(=O)[nH]c2ncccc2c1=O`: the “% Inhibition” value is given as -4% and the Z score stood at 0.66.
`CCn1cc(CN(C)C/C=C/c2ccccc2)cn1`: the “% Inhibition” value was -4% and the Z score is recorded as 0.39.
With `Cc1ccc(C(=O)N2CCC[C@H](CCC(=O)N3CCN(c4ccccn4)CC3)C2)s1`, the “% Inhibition” value is -8% and the Z score was 1.24.
Regarding `Cc1nc(NC(=O)Cc2ccccc2O)n[nH]1`, the “% Inhibition” value is listed as -18% and the Z score came to 3.13.
Regarding `CCN1CCN(c2nc(-c3ccccc3)ncc2C(=O)N2CCC(Cc3ccccc3)CC2)CC1`, the “% Inhibition” value is on record as -12% and the Z score was 1.27.
For `C[C@@H](C(=O)N(C)C1CCN(c2ccccn2)CC1)n1ccnc1`, the “% Inhibition” value is -15% and the Z score stood at 1.89.
Take `CCOc1cccc(CNC(=O)c2ccc(Oc3nccnc3N3CCOCC3)cc2)c1`: the “% Inhibition” value is given as -2% and the Z score amounted to 0.22.
For `Cc1ccc(CN(C)CCC(C)(C)O)c(C)c1F`, in that order: -6% and 1.04.
For `O=C(Cn1ncn2c(cc3ccccc32)c1=O)N1CCN(Cc2ccccc2)CC1`, the “% Inhibition” value is given as -5% and the Z score was 0.61.
Regarding `O=C(NC[C@@H]1COc2ccccc2C1)c1ccc(S(=O)(=O)NC2CC2)cc1`, the “% Inhibition” value is -1% and the Z score is reported as 0.13.
Turning to `Nc1nc(COC(=O)[C@H]2CCCN(C(=O)c3ccc(Cl)cc3)C2)nc(Nc2ccccc2)n1`, the “% Inhibition” value is recorded as -4% and the Z score is recorded as 0.63.
For `Cc1c(CN(C)Cc2nncn2C)c(-c2ccccc2)nn1-c1ccccc1`, the “% Inhibition” value was -7% and the Z score amounted to 1.17.
The like results for `COc1ncccc1C(=O)N1CC[C@H](Oc2cc(C)n(C)c(=O)c2)C1` were, in that order, 5% and -0.53.
With `CCCn1cc(CNc2cnc3[nH]nc(C)c3c2)cn1`, the “% Inhibition” value is on record as -10% and the Z score is 0.99.
Consider `Cc1ccc(C)c(CN(Cc2ccc(F)cc2)Cc2nc(C(=O)NC(C)C)co2)c1`, for which the “% Inhibition” value is -4% and the Z score came to 0.69.
For `CNc1nc(N2CCCn3nc(CNC(=O)C4CCC4)cc3C2)ncc1F`, in that order: -1% and 0.1.
As to `Cc1cc(Cl)ccc1NC(=O)Cn1ncc(-c2ccccc2)nc1=O`, the “% Inhibition” value was found to be 4% and the Z score is recorded as -0.48.
Consider `COCCNCCOCCOc1ccc(Cl)c(C)c1`, for which the “% Inhibition” value stood at 3% and the Z score is -0.64.
Consider `COc1ccc([C@H]2CCCCN(C(=O)C3CCOCC3)C2)cc1`, for which the “% Inhibition” value amounted to 15% and the Z score is on record as -1.85.
For `Cc1cc(-c2nnc(NC(=O)C(c3ccccc3)c3ccccc3)o2)n(C)n1`, the “% Inhibition” value was -12% and the Z score amounted to 2.23.
For `Cc1cnc(CN(CCC2=CCCCC2)CC2CC2)cn1`, the “% Inhibition” value worked out at 8% and the Z score is given as -1.12.
For `COc1cccc(S(=O)(=O)N2[C@H]3CCNC[C@@H]2CC3)c1`, the “% Inhibition” value is reported as -5% and the Z score came out at 0.73.
Consider `CCCCNC(=O)c1cccc(-c2cnc3[nH]cnc3c2)c1`, for which the “% Inhibition” value is recorded as -8% and the Z score amounted to 1.45.
On to `CC1(CN2CCC(N3C[C@H](COc4ccc(F)cc4)OCC3=O)CC2)CCOCC1`, for which the “% Inhibition” value is given as -10% and the Z score was 1.95.
Consider `Cc1ccc2c(c1)[C@H]1CN(C)CCCC1N2S(=O)(=O)c1ccccc1` (stereo partly specified), for which the “% Inhibition” value was -1% and the Z score is listed as 0.16.
Consider `CC(C)(C)OC(=O)N1CCC[C@H](Nc2ccccc2CO)CC1`, for which the “% Inhibition” value was found to be 1% and the Z score is -0.25.
For `Cc1cc(-c2nn(-c3ccccc3F)cc2CN(C)Cc2cnn(C)c2)c(C)s1`, in that order: 19% and -2.43.
For `O=C(N[C@@H]1[C@@H]2CCO[C@@H]2[C@H]1N1CCCCC1)c1n[nH]c2c1CCCC2`, the “% Inhibition” value is -7% and the Z score came to 1.07.
On to `COc1ccc(CNC(=O)C[C@H]2C(=O)NCCN2Cc2ccccn2)cc1`, for which the “% Inhibition” value worked out at 2% and the Z score was -0.16.
Take `COC(=O)c1nc([C@@H]2CCCN2C(=O)c2ncccc2O)sc1C`: the “% Inhibition” value is recorded as -7% and the Z score worked out at 0.98.
As for `Cn1nccc1-c1ccc(CNC(=O)c2ccccc2)cn1`, the “% Inhibition” value is on record as 3% and the Z score was -0.32.
The like results for `CC(=O)Nc1ccc(S(=O)(=O)NC[C@@H](c2ccsc2)n2cccn2)cc1` were, in that order, -2% and 0.4.
Turning to `CC(=O)Nc1cccc(NC(=O)c2ccc3c(c2)CCCN3S(=O)(=O)c2ccc(C)cc2)c1`, the “% Inhibition” value was 3% and the Z score is -0.61.
The like results for `CCc1cc(C(=O)N2CCCC[C@H]2c2cccc(F)c2)ccn1` were, in that order, -13% and 2.48.
In the case of `CC(C)n1cc(NC(=O)c2ccc([C@@H]3CCCN3)s2)nn1`, the “% Inhibition” value is given as -18% and the Z score was found to be 2.17.
`CCc1ncc(CN2CCCCC[C@H]2c2cccc(F)c2)cn1`: the “% Inhibition” value is given as 3% and the Z score is recorded as -0.51.
For `CNC1CCCN(C(=O)C2CCN(c3cc(Cl)ccc3Cl)C2=O)C1` (stereo unspecified), the “% Inhibition” value is -2% and the Z score is reported as 0.27.
`CC[C@H]1[C@@H](NC(=O)Cn2ccnn2)[C@H]2CCO[C@H]21`: the “% Inhibition” value is -6% and the Z score was 0.67.
With `O=C(COc1ccccc1F)N(CCn1ccc(C(F)(F)F)n1)C1CCCC1`, the “% Inhibition” value is reported as -6% and the Z score was 1.16.
On to `Cc1noc(C)c1S(=O)(=O)N1CCC[C@](CC2CC2)(c2noc(-c3cccnc3)n2)C1`, for which the “% Inhibition” value worked out at 13% and the Z score is -1.67.
In the case of `O=C(c1cccc(F)c1)N1CCN(c2nc(-c3ccccc3)nc3cc(Cl)ccc23)CC1`, the “% Inhibition” value is recorded as -1% and the Z score stood at 0.08.
As for `Cc1cc(C)cc(NC(=O)Cc2nc(-c3cccs3)no2)c1`, the “% Inhibition” value was -12% and the Z score came out at 2.13.
With `Cc1nonc1CN1C(=O)N(C)c2ccccc2S1(=O)=O`, the “% Inhibition” value is 34% and the Z score is reported as -3.89.
For `O=S(=O)(Nc1ccc(F)cc1OCC1CC1)c1cn[nH]c1`, in that order: 39% and -5.68.
As to `Nc1c(C(=O)N2CCCCC2)sc(=S)n1Cc1ccccc1`, the “% Inhibition” value was -6% and the Z score was 0.77.
